Measurements reported in a compilation of properties of binary mixtures (doi:10.1021/acs.jced.5b00216).
Some of these densities may be calculated back from excess volumes.

Assay: xn = mol fraction of the nth substance listed
Conditions: 100 kPa

CC(C)NC(C)C + CC(C)CO
mass density [kg/m3]
Conditions	293.15 K	298.15 K	303.15 K	308.15 K	313.15 K
x1 = 0.0559	799.4	795.4	791.4	787.3	783.2
x1 = 0.1015	797.3	793.2	789	784.9	780.7
x1 = 0.1519	794.8	–	–	782	777.7
x1 = 0.2069	791.4	787.1	782.7	778.3	773.8
x1 = 0.2516	788.4	784	779.5	775	770.5
x1 = 0.3055	–	779.9	775.4	770.8	766.2
x1 = 0.3944	777.1	772.4	767.7	763.1	–
x1 = 0.4988	767.4	762.6	–	753.1	748.3
x1 = 0.6017	757.2	752.4	747.6	742.8	–
x1 = 0.7131	745.7	–	736.1	731.2	726.4
x1 = 0.8018	–	731.9	–	722.3	717.4
x1 = 0.865	730.1	725.3	720.5	715.6	710.7
x1 = 0.9062	726.1	–	716.4	711.5	706.6
x1 = 0.9423	722.4	717.6	–	707.8	702.9
x1 = 1	–	–	–	701.7	696.8

CC(C)CO + CC(C)NC(C)C
x2 = 0
Conditions	mass density [kg/m3]
293.15 K	802
298.15 K	798.1
303.15 K	794.2
308.15 K	790.2
313.15 K	786.2

CC(C)O + CC(C)NC(C)C
x2 = 0
Conditions	mass density [kg/m3]
293.15 K	785.3
298.15 K	781.1
303.15 K	776.8
313.15 K	768

CCCCO + CC(C)NC(C)C
x2 = 0
Conditions	mass density [kg/m3]
303.15 K	802.1
308.15 K	798.2

CC(C)NC(C)C + CC(C)O
mass density [kg/m3]
Conditions	293.15 K	298.15 K	303.15 K	308.15 K	313.15 K
x1 = 0.0499	784.4	780	–	771.1	766.5
x1 = 0.1033	781.7	–	772.7	768.1	763.4
x1 = 0.1405	779.5	774.9	–	765.6	760.8
x1 = 0.2062	775.6	–	766.1	–	756.4
x1 = 0.2498	772.9	768.1	763.2	758.3	–
x1 = 0.303	769.1	764.2	759.3	754.4	749.4
x1 = 0.4121	761.1	756.2	–	746.2	–
x1 = 0.4955	754.7	–	744.7	739.7	734.6
x1 = 0.5984	746.7	741.7	–	731.7	–
x1 = 0.6982	739	734.8	–	723.9	718.7
x1 = 0.7902	–	–	–	717.1	712
x1 = 0.8632	–	721.6	716.6	711.7	–
x1 = 0.9067	723.3	718.4	713.5	–	703.6
x1 = 0.9459	720.4	715.6	710.7	705.7	700.8
x1 = 1	716.4	711.5	706.6	701.7	696.8

CC(C)NC(C)C + CCCCO
mass density [kg/m3]
Conditions	293.15 K	298.15 K	303.15 K	308.15 K	313.15 K
x1 = 0.0499	807.1	803.1	799.2	795.2	791.1
x1 = 0.1095	804	799.9	795.8	791.7	787.5
x1 = 0.1542	801.2	797	792.8	788.6	784.4
x1 = 0.2062	797.7	793.4	789.1	784.8	780.4
x1 = 0.25	794.5	790.1	785.7	781.3	–
x1 = 0.2969	790.8	786.4	781.9	777.4	772.9
x1 = 0.4059	780.7	776.1	771.5	766.9	–
x1 = 0.5062	–	765.9	761.2	756.5	751.7
x1 = 0.6009	760.5	755.7	751	–	741.4
x1 = 0.7043	749.2	744.4	739.6	734.8	730
x1 = 0.8059	738.2	733.4	728.6	723.8	718.9
x1 = 0.8543	732.8	728	723.2	718.3	713.4
x1 = 0.8987	–	723	718.2	713.3	708.4
x1 = 0.9489	722.5	–	712.8	707.9	703
x1 = 1	716.4	–	706.6	701.7	696.8
